Values joined by “and” are separate entries in the source; they are usually repeats but may differ in a detail not shown here. Equal entries are not always repeated. Inconclusive results, whose numbers are uncertain, are shown with a selection of clear calls. Where the call is inconclusive, the potency comes from a doubtful curve fit. Active and inactive are the calls of the source. The call rests on the fitted dose curve; in most records, active means well fitted inhibition curve with a large enough effect in the repeat runs; inconclusive means weak or mixed curves; inactive means no such curve, though single readings can be large or run the other way.
These compounds were tested against Cytochrome P450 2C19 (Homo sapiens) (UniProt P33261) (assay: Cytochrome P450 Family 2 Subfamily C Member 19 (CYP2C19) small molecule antagonists: luciferase reporter qHTS assay (AID 1671197; further: nearly all actives have a fitted effect of over 65% in size)). Conditions: P450-Glo CYP2C19 enzyme, luciferin luminescence, 1 h; series mostly up to 115 µM.
Chain of UniProt P33261 (P33261 whole entry, looked up): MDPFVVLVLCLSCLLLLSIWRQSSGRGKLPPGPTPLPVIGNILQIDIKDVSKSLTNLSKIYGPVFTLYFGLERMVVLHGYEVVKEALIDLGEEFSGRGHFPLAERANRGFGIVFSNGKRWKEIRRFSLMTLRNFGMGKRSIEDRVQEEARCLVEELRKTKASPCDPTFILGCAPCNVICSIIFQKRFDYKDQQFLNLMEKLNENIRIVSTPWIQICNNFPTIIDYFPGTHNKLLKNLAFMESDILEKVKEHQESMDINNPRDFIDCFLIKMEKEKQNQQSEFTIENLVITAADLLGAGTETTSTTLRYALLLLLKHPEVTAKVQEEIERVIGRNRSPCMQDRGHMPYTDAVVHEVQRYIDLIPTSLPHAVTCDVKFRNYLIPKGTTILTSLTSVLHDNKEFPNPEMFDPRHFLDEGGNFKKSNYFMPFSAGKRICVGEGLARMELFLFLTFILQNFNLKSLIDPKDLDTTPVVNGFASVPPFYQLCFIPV
Procedure, shortened: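 Inhibition of CYP2C19 was scored from loss of luminescence in a P450-Glo proluciferin substrate assay, NADPH-started and run 1 h at 37C, with ketoconazole as positive control.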
In the case of `CCCCCCOC(=O)c1ccccc1C(=O)OCCCCCC`, the Potency is reported as active: 20.4 µM and active: 7.96 µM.
In the case of `CC(=O)c1cc2c(cc1C)C(C)(C)C(C)CC2(C)C` (centres undefined), the Potency is reported as inconclusive: 79.6 µM [inhibitor, single point].
In the case of `Fc1ccc(Oc2ccnc3cc(Cl)cc(Cl)c23)cc1`, the Potency is reported as active: 20 µM.
For `BrCCCCBr`, the Potency was “inactive”.
In the case of `CCC[N+](=O)[O-]`, the Potency is reported as inconclusive: 1.78 µM [inhibitor, single point].
In the case of `CCCC1COC(Cn2cncn2)(c2ccc(Cl)cc2Cl)O1` (centres undefined), the Potency is reported as active: 456 nM and active: 356 nM.
`Oc1c(Cl)c(Cl)cc(Cl)c1Cl` was tested, and the Potency was “inactive”.
For `COP(=S)(OC)SCn1nnc2ccccc2c1=O`, the Potency was active: 1.1 µM and active: 894 nM.
With `N#Cc1cc([N+](=O)[O-])ccc1N` the Potency was inconclusive: 89.4 µM [inhibitor, single point].

Source: PubChem BioAssay (Tox21)
Potency means the concentration at half of the fitted maximal effect; tags describe the fitted curve by direction and shape.
